# Among all 310,000 compounds or so, about 2,200 (0.71%) showed an effect of 50% or more. Effects have a minus sign here. Some of the results follow.
# Molecular target: human ether-à-go-go-related gene (hERG) potassium channel (human, UniProt Q12809)
# Assay: primary screen, population patch clamp on CHO cells stably expressing hERG
# Chain of human ether-à-go-go-related gene (hERG) potassium channel (Q12809 whole entry, looked up): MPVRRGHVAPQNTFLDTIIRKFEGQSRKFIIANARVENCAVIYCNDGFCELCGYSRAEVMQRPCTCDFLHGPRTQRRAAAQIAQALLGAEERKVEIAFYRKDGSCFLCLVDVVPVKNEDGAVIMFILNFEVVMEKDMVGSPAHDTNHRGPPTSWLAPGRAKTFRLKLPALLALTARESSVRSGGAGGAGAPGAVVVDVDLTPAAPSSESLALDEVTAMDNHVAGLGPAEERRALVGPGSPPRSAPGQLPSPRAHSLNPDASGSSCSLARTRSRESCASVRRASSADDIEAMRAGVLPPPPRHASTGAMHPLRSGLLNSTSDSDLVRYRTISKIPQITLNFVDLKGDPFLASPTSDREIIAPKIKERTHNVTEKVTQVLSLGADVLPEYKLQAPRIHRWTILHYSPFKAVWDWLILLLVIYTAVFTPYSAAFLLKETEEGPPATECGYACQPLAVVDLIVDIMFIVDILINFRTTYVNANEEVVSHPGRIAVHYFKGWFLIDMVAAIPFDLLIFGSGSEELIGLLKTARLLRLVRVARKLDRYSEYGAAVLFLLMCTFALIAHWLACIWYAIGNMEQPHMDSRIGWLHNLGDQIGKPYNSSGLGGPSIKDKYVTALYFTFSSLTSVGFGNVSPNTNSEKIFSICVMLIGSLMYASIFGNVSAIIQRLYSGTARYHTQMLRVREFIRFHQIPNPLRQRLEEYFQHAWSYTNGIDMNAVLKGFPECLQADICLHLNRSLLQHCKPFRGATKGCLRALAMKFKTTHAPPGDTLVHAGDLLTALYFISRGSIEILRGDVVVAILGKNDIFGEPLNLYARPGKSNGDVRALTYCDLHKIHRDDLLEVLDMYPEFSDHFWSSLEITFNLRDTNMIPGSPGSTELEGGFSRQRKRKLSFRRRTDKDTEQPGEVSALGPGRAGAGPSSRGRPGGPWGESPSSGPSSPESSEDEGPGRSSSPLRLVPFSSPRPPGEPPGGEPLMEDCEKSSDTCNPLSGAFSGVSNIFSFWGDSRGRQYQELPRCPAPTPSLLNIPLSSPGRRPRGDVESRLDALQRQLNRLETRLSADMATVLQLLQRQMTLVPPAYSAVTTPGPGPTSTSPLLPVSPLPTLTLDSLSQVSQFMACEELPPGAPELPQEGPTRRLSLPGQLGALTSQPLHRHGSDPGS
row,Structure (SMILES),"hERG current change (%, negative = inhibition) at 1uM [%]"
1,O=C(CCc1nnc2ccc(N3CCC4(CC3)OCCO4)nn12)Nc1ccc(F)cc1,-0.576
2,Cc1cc(NC(=O)c2nn(C)c(C)c2[N+](=O)[O-])no1,6.53
3,Cc1ccc(-c2csc3nnc(SCC(=O)Nc4nsc(-c5ccccc5)n4)n23)cc1,-19.1
4,COC(=O)c1cccc(CSc2nc3ccccc3[nH]2)c1,4.94
5,Cc1ccc(C(=O)Nc2ccc(Br)c(C(F)(F)F)c2)cc1,10.2
6,CCc1nnc2n1N=C(c1ccc(Br)cc1)CS2,3.84
7,Cc1ccc(NC(=O)CCC(=O)OCC(=O)c2ccc(-c3ccccc3)cc2)cc1,1.24
8,Cc1ccc(C(=O)CCC2CCCC2=O)cc1 (stereo not shown),7.21
9,Cc1ccc(C)c(/C(O)=C2\C(=O)C(=O)N(CCCn3ccnc3)C2c2cccnc2)c1 (stereo not shown),1.45
10,O=C(CCNS(=O)(=O)c1cccs1)Nc1nccs1,8.16
11,CC(=O)Nc1ccccc1-c1nnn(CC(=O)Nc2ccc3c(c2)OCCO3)n1,15.2
12,COC(=O)c1cc(C)sc1NC(=O)CN1CCN(C(=O)c2ccco2)CC1,-3.32
13,O=C(Cc1ccccc1)NC1CCN(C(=O)c2ccc([N+](=O)[O-])cc2)CC1,-17.4
14,Cn1nccc1C(=O)N1CCCC(N2CCN(c3cccc(C(F)(F)F)c3)CC2)C1 (stereo not shown),5.64
15,Cc1onc(-c2c(Cl)cccc2Cl)c1C(=O)NCc1ccccn1,7.35
16,CCOC(=O)N1CCN(c2cc(C)c([N+](=O)[O-])cc2F)CC1,4.14
17,CCCCNC(=O)NS(=O)(=O)c1cnccc1Sc1ccc(Cl)cc1,13.2
18,N#Cc1c(-c2ccccc2)nc(SCc2ccc([N+](=O)[O-])cc2)[nH]c1=O,17.5
19,CCOC(=O)Cn1c(CN(Cc2ccccc2)Cc2ccccc2)nc2c1c(=O)[nH]c(=O)n2C,10
20,O=C(COC(=O)c1ccc([N+](=O)[O-])cc1)Nc1ccc(Cl)cn1,-8.1
21,CCCN1CCN(CCCNC(=O)c2cc3c(s2)-c2c(C)cccc2OC3)CC1,-67.5
22,O=C(NCCOc1ccccc1)c1ccccc1NC(=O)C1CCCO1 (stereo not shown),12

row,Structure (SMILES),"hERG current change (%, negative = inhibition) at 1uM [%]"
1,CC(=O)c1ccc(C(=O)NC2CC(C)(C)Cc3c2cnn3-c2ccccc2)cc1 (stereo not shown),5.88
2,O=C(c1ccco1)N1CCCC(c2nc3c(nnn3Cc3cccc(Cl)c3)c(=O)[nH]2)C1 (stereo not shown),-3.13
3,Cc1nnc(SCC(=O)N2c3ccccc3CC2C)s1 (stereo not shown),19.9
4,CCOc1c(O)ccc(/C=C2\SC(=S)NC2=O)c1[N+](=O)[O-],9.8
5,COc1ccccc1CN(C)CC(=O)Nc1ccccc1-c1ccccc1,8.01
6,COc1cc2ncc(C(=O)c3ccccc3)c(N3CCN(Cc4ccccc4)CC3)c2cc1OC,8.52
7,CCOc1ccc(N(CC)C(=O)CCS(=O)(=O)c2cccc3nonc23)cc1,7.63
8,CCOC(=O)c1c(NC(=O)c2c(N)n(CCCOC)c3nc4ccccc4nc23)sc2c1CCCC2,8.9
9,CN1CCN(C(=O)C23CC4CC(C2)CC(c2ccccc2)(C4)C3)CC1.Cl,8.4
10,CCC(=O)Nc1ccc(NC(=S)NC(=O)/C=C/c2ccco2)cc1,6
11,O=C(Nc1cccnc1)C1CCN(S(=O)(=O)c2cccc3nonc23)CC1,9.03
12,Cc1[nH]nc2c1C(c1ccsc1C)C(C#N)=C(N)O2 (stereo not shown),8.46
13,CC(C)NS(=O)(=O)c1ccc(OCC(=O)N2CCCC2)cc1,3.05
14,CN(CC(=O)Nc1ccc(F)cc1)C(=O)c1cc([N+](=O)[O-])ccc1N1CCOCC1,-4.14
15,Cc1ccc(/C=C2/CCc3c([nH]c4ccccc34)C2=O)cc1,16.4
16,CCOC(=O)C1(CCC(C)C)CC(CSc2nc3ccccc3[nH]2)OC1=O (stereo not shown),0.436
17,Cc1cccc(NC(=O)/C=C/c2ccc([N+](=O)[O-])s2)c1,8.58
18,CCOc1cccc(NC(=O)C2CC(=O)NC(=Nc3ccccc3)S2)c1 (stereo not shown),9.88
19,COc1ccc(N=C2NN=C(c3c(C)[nH]c4ccccc34)CS2)cc1.Cl,8.61
20,Cc1nc2n(COCCO)cnn2c(=O)c1Br,8.55
21,Cc1cc(C)nc(NC(=O)c2cnc3sccn3c2=O)n1,11.3
22,O=C1CSC2N1CCNC21CCCCC1 (stereo not shown),7.78

row,Structure (SMILES),"hERG current change (%, negative = inhibition) at 1uM [%]"
1,CC(=O)NC(Cc1ccccc1)C(=O)N1CCN(C(=S)NCC(C)C)CC1 (stereo not shown),4.53
2,O=c1[nH]c(-c2ccccc2)c(-c2ccccc2)o1,14
3,O=C(O)[C@@H]1CCCN1C(=O)COc1ccc2c3c(c(=O)oc2c1)CCC3,8.62
4,COC(CN(C(=O)CCl)C(C(=O)NC1CCCCC1)c1ccccc1C)OC (stereo not shown),8.82
5,CN1CCN(c2ccc([N+](=O)[O-])c(N/N=C3\CN4CCC3CC4)c2)CC1,5.32
6,Cc1cc2nc3n(c2cc1C)CCCN3,5.81
7,C=CCn1c(=O)[nH]c2cc(C(=O)N3CCN(c4cc(C)ccc4C)CC3)ccc2c1=O,2.81
8,OCC1(CC2CCCCO2)CCN(Cc2cccc(O)c2)CC1 (stereo not shown),6.68
9,C=C[C@H]1[C@H](OC2OC(CO)C(O)C(O)C2O)OC=C(C(=O)OC)[C@H]1C[C@H]1CC(=O)C[C@H](CC(=O)CCc2ccc(O)cc2)O1 (stereo partly shown),-3.71
10,CC(=O)O/N=C(/c1nonc1N)N1CCN(c2ccc([N+](=O)[O-])cc2Cl)CC1,-2.9
11,O=C(NCc1ccc(F)cc1)C1CCN(S(=O)(=O)c2ccc(Cl)cc2)CC1,17.9
12,O=C(NCc1ccccc1F)C1CC(=O)N(c2ccc3c(c2)OCCO3)C1 (stereo not shown),11.3
13,Cc1c(NC(=O)c2cc(-c3ccc4c(c3)OCO4)on2)c(=O)n(-c2ccccc2)n1C,6.96
14,Cc1occc1C(=O)Nc1cc(S(=O)(=O)N2CCOCC2)ccc1OC(C)C,8.52
15,CN1CCN(C(=O)C2=C[C@H](c3csc4ccccc34)C[C@H](OCc3ccc(CO)cc3)O2)CC1,2.17
16,Nc1nc(-c2ccc3ccccc3c2)c(C2(O)C(=O)Nc3c(Br)cc(F)cc32)s1 (stereo not shown),5.28
17,COC(=O)c1sccc1NC(=O)/C=C/c1c(Cl)cccc1Cl,14.3
18,COc1ccccc1C(=O)N/C(=C/c1ccccc1)C(=O)NC(CCSC)C(=O)O (stereo not shown),12
19,N#Cc1nc(Cc2cccc3ccccc23)oc1NCc1ccco1,1.26
20,CNS(=O)(=O)c1ccc(C(=O)NCC(=O)NCCC(c2ccccc2)c2ccccc2)cc1,-7.79
21,O=c1[nH]c(=S)n(Cc2ccco2)c(O)c1C=NCc1cccs1,6.08
22,c1ccc2c(-c3nnc4n3CCCCC4)c[nH]c2c1,7.36

row,Structure (SMILES),"hERG current change (%, negative = inhibition) at 1uM [%]"
1,O=C(CN(C(=O)Cn1nnc(-c2ccc(F)cc2)n1)c1ccc(F)c(Cl)c1)NCC1CCCO1 (stereo not shown),6.28
2,COc1cc(NC(=O)CNc2ccc(Cl)c(S(=O)(=O)N3CCOCC3)c2)cc(OC)c1,11.6
3,COc1cc(C(=O)O/N=C(\N)c2ccc([N+](=O)[O-])cc2)cc(OC)c1OC,-2.49
4,Cc1c(C(=O)N2CCN(c3ccccn3)CC2)oc2c1C(=O)CC(C)(C)C2,6.35
5,O=C(COC(=O)Cn1cnc2ccccc2c1=O)Nc1ccc2c(c1)OCO2,11.9
6,COc1cc([N+](=O)[O-])cc(/C=N/NC(=O)Cn2cncn2)c1O,5.47
7,Cn1c(=O)c2c([nH]c(=O)n2C)n(Cc2ccccc2)c1=O,13.1
8,CCN(CC)S(=O)(=O)c1cccc(C(=O)NCC2CCCCC2)c1,4.08
9,CCOc1ccc(C(=O)NCC(=O)Nc2ccncc2)cc1OCC,10.9
10,O=C(N/N=C/c1ccccn1)c1sc2ccccc2c1Cl,11.2
11,Cc1ccc(S(=O)(=O)N2CCN(C(=O)COc3ccc(NC(=O)c4ccco4)cc3)CC2)cc1,15.2
12,CCn1c(Cn2nnc(-c3ccccc3)n2)nnc1SCC(=O)N1CCOCC1,-1.15
13,COc1ccc(/C=N/NC(=O)CSc2ccccn2)cc1OC,10.7
14,Cc1cc(NC(=O)C2COc3ccccc3O2)no1 (stereo not shown),5.13
15,Cc1nc(NC2CCCCC2)c2nnn(Cc3ccccc3Cl)c2n1,17.8
16,CC(=O)O[C@]1(C(C)=O)CC[C@H]2[C@@H]3C=C(Cl)C4=CC(=O)CC[C@]4(C)[C@H]3CC[C@@]21C,-6.51
17,O=c1oc2ccccc2c(NC2CCCCC2)c1NS(=O)(=O)c1ccc(F)c(Cl)c1,16.5
18,C(=NC12CN3CN(CN(C3)C1)C2)c1cccs1,7.36
19,Cc1ccc(S(=O)(=O)N2CCCN(S(=O)(=O)c3ccc4c(c3)OCCO4)CC2)cc1,8.79

# From publication PMC4336329 (PLoS ONE, 2015)
